Our source for the IC50 and viability, T/C values is PubChem BioAssay AID1963872 (Molecular Pharmacology Branch, DTP, NCI, 2024).

In this test the test system is KRAS patient-derived spheroids with HUVEC/MSC, viability. Briefly: Anticancer human tumor 519858-162-T-J1-PDC patient-derived colon adenocarcinoma cell line growth inhibition [KRAS2]. The note with it: for viability, T/C: stronger effect = lower value. The source says:
Multicellular complex tumor spheroid response to RAS pathway inhibitors in combination with a targeted agents in patient-derived cell lines with oncogenic KRAS variants from multiple cancer types
A high-throughput screen of multi-cell type tumor spheroids was designed to identify active combinations of targeted small molecules and KRAS pathway inhibitors. Complex spheroids include a stromal component modeled by human endothelial cells (HUVEC) and fibroblasts modeled by human mesenchymal stem cells (MSCs). The concentration ranges selected for each drug and investigational agent were based upon clinically achievable concentrations if the clinical Cmax of the agent was known.
Compounds. The drugs and investigational agents: BI-3406 (NSC825286), BAY-293 (NSC824723), batoprotafib (TNO155; NSC825523), sotorasib (AMG 510; NSC818433), MRTX1257 (NSC819558), elimusertib (BAY 1895344; NSC800525), molibresib (GSK525762; NSC774829), temuterkib (LY3214996; NSC803410), venetoclax (NSC766270), alisertib (NSC759677), olaparib (NSC753686), talazoparib (NSC767125), erdafitinib (NSC781556), ipatasertib (NSC767898), cabozantinib (NSC761068), nintedanib (NSC756659), abemaciclib (NSC768073), docetaxel (NSC628503), trametinib (NSC758246), and sapanisertib (NSC764658) were obtained from the National Cancer Institute (NCI) Developmental Therapeutics Program Chemical Repository. The FDA-approved anticancer drug set is available from the Developmental Therapeutics Program. […] The stock solutions were prepared in dimethyl sulfoxide (DMSO, Sigma-Aldrich, St. Louis, MO, cat. D2650) at 800-fold the tested concentration and stored at -70 degrees C prior to their use. All drugs and investigational agents were tested over a range starting from a high concentration at or near the clinical Cmax and decreasing in half-log increments. If the clinical Cmax for an agent had not been determined, the highest concentration tested was 10 microM.
Cell Culture. All cells were maintained in an incubator at 37 degrees C and 5% CO2 with 95% humidity. The PDC lines were cultured according to standard operating procedures established by the NCI PDMR (https://pdmr.cancer.gov/sops/default.htm). Briefly, all PDCs were thawed and cultured in Matrigel-coated flasks prepared with a working solution of 1X Ham's F-12 nutrient mix, without supplementation (Invitrogen, Waltham, MA, cat. 11765054), 100 U/mL penicillin-streptomycin (Invitrogen, cat. 15140122), and 2.5% Matrigel (Corning Inc., Corning, NY, cat. 354248) for the first three passages. All PDCs were cultured in complete DMEM/F-12 media containing advanced DMEM/F-12 (Invitrogen, cat. 12634028), 4.9% defined fetal bovine serum, heat inactivated (HyClone Laboratories Inc., Logan, UT, cat. SH30070.03HI), 389 ng/mL hydrocortisone (Sigma-Aldrich, cat. H4001), 9.7 ng/mL human EGF recombinant protein (Invitrogen, cat. PHG0313), 23.4 microg/mL adenine (Sigma-Aldrich, cat. A2786), 97.3 U/mL penicillin-streptomycin (Invitrogen, cat. 15140122), 1.9 mM L-glutamine (Invitrogen, cat. 25030081), and 9.7 microM Y-27632 dihydrochloride (Tocris Bioscience, Bristol, United Kingdom, cat. 1254). The PDCs were cultured in complete DMEM/F12 media without 9.7 microM Y-27632 dihydrochloride for at least two passages prior to the screen. The established cell line HOP-62 was cultured in RPMI 1640 medium, HEPES (Invitrogen, cat. 22400105) with 10% defined fetal bovine serum (HyClone Laboratories Inc., cat. SH30070.03) and 2 mM L-glutamine (Invitrogen, cat. 25030081). The pooled donor HUVEC were cultured in endothelial cell growth medium 2 (PromoCell, Heidelberg, Germany, cat. C-22011) and the hMSC were cultured in mesenchymal stem cell growth medium 2 (PromoCell, cat. C-28009). For all experiments, HUVEC and hMSC were used at passages </=5, while the malignant cell lines were used at passages </=15. […]

Some entries of the source have several records that differ or are many. The other results are left out here. An entry can have further records. The records of an entry are repeats (runs, samples, wells, individuals or studies). Marks such as (2×) give the number of equal values in this list.
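Further: compound exposure lasted seven days before readout.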

What is called IC50 is the concentration at which inhibition is half-maximal. The term viability, T/C denotes the result in the treated group divided by that in the control group, in per cent. With `COc1cc(OC)cc(N(CCNC(C)C)c2ccc3ncc(-c4cnn(C)c4)nc3c2)c1`, the IC50 (compound alone) was > 10 µM and 722 nM. Also, the viability, T/C was 92.9, 93.1, 72.4, 88, 98.9% (compound alone 0.0316 µM); 71.9, 106, 61.7, 95.5, 111% (compound alone 0.1 µM); 93.5, 87.1, 74.3, 103, 105% (compound alone 0.316 µM); 82.1, 115, 95.1, 20.7, 80.8% (compound alone 1 µM); 99.5, 96.6, 123, 53.8, 106% (compound alone 3.16 µM); 71.4, 69.3, 57, 21.8, 85.2% (compound alone 10 µM).

Regarding `C=CC(=O)N1CCN(c2nc(=O)n(-c3c(C)ccnc3C(C)C)c3nc(-c4c(O)cccc4F)c(F)cc23)C(C)C1` (stereo not given), the viability, T/C was 86.7, 89.3, 73.8, 75.1, 105, 90.8, 95.2, 93.5, 81.1, 70.3, 104, 80, 97, 99, 97.2, 96.3, 101% (compound alone 0.1 µM); 65.5, 84.9, 86.2, 76.7, 93.5, 77.6, 84.5, 96.3, 93.3, 88, 88.4, 69.8, 112, 89.3, 104, 95.5, 87% (compound alone 0.316 µM); 82.6, 73.5, 94, 95, 104, 76.3, 94.2, 83.8, 77, 79.5, 90.1, 80, 82.4, 92.9, 85, 98.6, 92.3% (compound alone 1 µM); 84.9, 111, 85.8, 78.3, 80.5 (2×), 77.1, 78, 98.5, 89.2, 85.2, 92.9, 71.9, 102, 105, 62.5, 74.7% (compound alone 3.16 µM); 71.2, 96.7, 93, 125, 83.3, 83 (2×), 102, 89.1, 79.8, 87.2, 76, 91.8, 86.3, 44.7, 61.6, 80.7% (compound alone 10 µM).

Turning to `CN(C)C/C=C/C(=O)Nc1cc2c(Nc3ccc(F)c(Cl)c3)ncnc2cc1O[C@H]1CCOC1`, the viability, T/C reads like this: (compound alone 0.000316 µM) 83.7, 100, 76.7, 113, 84.2%; (compound alone 0.001 µM) 87.3, 94.4, 95.9, 88.2, 63.1%; (compound alone 0.00316 µM) 93.2, 88, 114, 94.8, 98.8%; (compound alone 0.01 µM) 88.3, 108, 77.4, 107, 88.9%; (compound alone 0.0316 µM) 119, 101, 83.7, 88.5, 64.1%.

As for `CC1(C)CCC(CN2CCN(c3ccc(C(=O)NS(=O)(=O)c4ccc(NCC5CCOCC5)c([N+](=O)[O-])c4)c(Oc4cnc5[nH]ccc5c4)c3)CC2)=C(c2ccc(Cl)cc2)C1`, the viability, T/C (compound alone 0.0316 µM) is 117, 96.7, 81.5, 80.9, 83.2%; the viability, T/C (compound alone 0.1 µM) was 69.2, 81.9, 85.9, 95.7, 87.4%; the viability, T/C (compound alone 0.316 µM) is on record as 104, 78.3, 93.5, 124, 81.1%; the viability, T/C (compound alone 1 µM) is 106, 87.8, 93.1, 118, 71.3%; the viability, T/C (compound alone 10 µM) was 46.7, 79, 81, 89, 75.4%.

As for `CC(C)NCC(C(=O)N1CCN(c2ncnc3c2C(C)CC3O)CC1)c1ccc(Cl)cc1` (stereo not given), the viability, T/C reads like this: (compound alone 0.0316 µM) 90.1, 84.8, 83.6, 108, 76.5%; (compound alone 0.1 µM) 108, 90.7, 102, 93.3, 68.1%; (compound alone 3.16 µM) 82.6, 87.2, 91.1, 49.5, 81.2%.

For the compound `COC(=O)c1ccc2c(C(=Nc3ccc(N(C)C(=O)CN4CCN(C)CC4)cc3)c3ccccc3)c(O)[nH]c2c1`, the viability, T/C (compound alone 0.1 µM) is 71.5, 94.4, 91.2, 101, 104%; the viability, T/C (compound alone 0.316 µM) is recorded as 89.3, 83.9, 98.9, 62, 78.4%; the viability, T/C (compound alone 1 µM) was 79.8, 89.4, 111, 78.6, 105%; the viability, T/C (compound alone 3.16 µM) is recorded as 73.1, 113, 99.3, 85, 97.6%; the viability, T/C (compound alone 10 µM) is 69.6, 84.2, 77, 60.4, 98.4%.

As for `C=CC(=O)N1CCN(c2nc(OCC3CCCN3C)nc3c2CCN(c2cccc4cccc(C)c24)C3)CC1CC#N` (stereo not given), the viability, T/C was 122, 96.5, 79.7, 98.5, 66.6, 103, 84, 95.5, 94.9, 58.5, 93.1, 101, 96.2, 73.6, 76.1, 81.2, 84.2% (compound alone 0.0316 µM); 93.5, 77.2, 98.4, 77.4, 69.9, 85.3, 73.7, 85.8, 78.2, 97.3, 76.2, 85, 88.5, 66.4, 90, 76.1, 105% (compound alone 0.1 µM); 75.5, 96.7, 108, 89.8, 67.3, 100, 105, 85.2, 67.9, 66.1, 72.1, 71.5, 89.2, 64.1, 81.8, 66.3, 86.7% (compound alone 0.316 µM); 78.2, 95.4, 84.7, 69.5, 53.2, 90.9, 55.8, 91.9, 82.4, 82.6, 65, 71.2, 75.2, 87.1, 84.4, 83.6, 72.2% (compound alone 1 µM); 83.8, 98.9, 84.4, 54.5, 65.2, 81.6, 76.7, 56.2, 68.4, 61.4, 66.5, 74.4, 67.2, 39.6, 55.5, 70.8, 75% (compound alone 3.16 µM).
